From the RNAGym collection of RNA variant scans (doi:10.7554/elife.90254)
The source gives no read counts; variants with many changes may rest on few reads.

B1: LINE1-mini (parent)
chain: GGCAGAGCUCAACACAGCGUGGCAAAGUGGCUGUGGCUAGACUGCC

Variants of: B1
Assay: self-cleavage, relative activity (ratio to wild type); higher = more cleavage; in vitro, sequencing; the parent is a self-cleaving ribozyme

Variant	self-cleavage
GGCAGAGCUCAACACAGCAUGGCAAAGUGGUUGUGGCAAGACUACC [G19A C31U U38A G44A]	0.1
GGCAGAGCUCAACACAGCAUGGCAAAGUGGUUGUGGCUAGAUUGCC [G19A C31U C42U]	0.12
GGCAGAGCUCAACACAGUGUGGCAAAGCGGCUGUGGCUAGUCUGCC [C18U U28C A41U]	0.26
GGCAGAGCUCAACACAGCAUGGCAAAGUGGAUGUGGCUAGACUCCC [G19A C31A G44C]	0.09
GGCAGAGCUCAACACAGUGCGGCAAAGUGGCUUUGGCUAGACUGCC [C18U U20C G33U]	0.02
GGCAGAGCUCAACACAGUGUGGCAAAGAUGCUGUGGCUAGACUGCC [C18U U28A G29U]	0.29
GGCAGAGCUCAACACAGUGUGGCAAACUGGCUGUGGCUAGACUGAC [C18U G27C C45A]	0.19
GGCAGAGCUCAACACAGUGUGUCAAUGUGGCUGUGGCUAGACUGCC [C18U G22U A26U]	0.27
GGCAGAGCUCAACACAGUGUGACAAAGUGGCUGUGGCUAGACUGCU [C18U G22A C46U]	0.28
GGCAGAGCUCAACACAGUGUGUCAAAGUGGCUGUGGCUAGACUUCC [C18U G22U G44U]	0.11
GGCAGAGCUCAACACAGUGUGACAAAGUGGCUGUUGCUAGAAUGCC [C18U G22A G35U C42A]	0.03
GGCAGAGCUCAACACAGUGUGGCAAACUGGCAGUGGCCAGACUUCC [C18U G27C U32A U38C G44U]	0.02
GGCAGAGCUCAACACAGUGAGGCAAUGUGGCUGUGGCUCGACUGCC [C18U U20A A26U A39C]	0.11
GGCAGAGCUCAACACAGUGUGGCAAAGUAGCUGUGGCGAGACUGCC [C18U G29A U38G]	0.02
GGCAGAGCUCAACACAGUGUGGCAAAGUGGCUGGGGCAAAACUGCC [C18U U34G U38A G40A]	0.03
GGCAGAGCUCAACACAGUGUGGCAAAGUGUCUUUGGCUAUACUGCC [C18U G30U G33U G40U]	0.01
GGCAGAGCUCAACACAGUGUGACAAAGUGGCUGUGGCUAGAUUGCC [C18U G22A C42U]	0.2
GGCAGAGCUCAACACAGCAUGGCAAAGUGGUUGUGGUUAGACUGCC [G19A C31U C37U]	0.06
GGCAGAGCUCAACACAGUGUGGCAAAGUGGCUGAGUCUACACUGCC [C18U U34A G36U G40C]	0.02

Variant	self-cleavage
GGCAGAGCUCAACACAGCAUGGCAUAGUGGCUGUGGCUAGUCUGCC [G19A A25U A41U]	0.48
GGCAGAGCUCAACACAGCAUGGUCAAGUGGCUGUGGCUAGACUUCC [G19A C23U A24C G44U]	0.03
GGCAGAGCUCAACACAGCAUGGCAACAUGGCUGUGGCUAGACUGCC [G19A A26C G27A]	0.3
GGCAGAGCUCAACACAGCAUGGCAAAGUGGCUGUGGGUAGCCUGCC [G19A C37G A41C]	0.01
GGCAGAGCUCAACACAGCAUGGCACAGUUGCUGUGGGUACACUGCC [G19A A25C G29U C37G G40C]	0.08
GGCAGAGCUCAACACAGCAUGGCUAAGUGGCUGUGGCUAGACAGCC [G19A A24U U43A]	1.75
GGCAGAGCUCAACACAGUGUGGCAAAUUGGCUGUGGCUAGAUUGCC [C18U G27U C42U]	0.16
GGCAGAGCUCAACACAGCAUGGCACCGUGGCUGUGGCUAGAAUGCC [G19A A25C A26C C42A]	0.44
GGCAGAGCUCAACACAGCAUGGUAAACUUCCUGUGGCUAGACUGCC [G19A C23U G27C G29U G30C]	0.99
GGCAGAGCUCAACACAGUGUGGCAAAGUGUCUGAGGCUAGACUGCC [C18U G30U U34A]	0.01
GGCAGAGCUCAACACAGCAUGGCACGGUGGCAGUGGCUAGACUACC [G19A A25C A26G U32A G44A]	0.09
GGCAGAGCUCAACACAGCAUGGCUAAGUGGCUGUGACUAGACUGCC [G19A A24U G36A]	0.15
GGCAGAGCUCAACACAGUGUGGCAAAUUGGCCGUGGCUAGACUGCC [C18U G27U U32C]	0.05
GGCAGAGCUCAACACAGUGUGACAAAGUGGCUGAGGCUAGACUGCC [C18U G22A U34A]	0.02
GGCAGAGCUCAACACAGUGUGGCAAAGUAGCUGUUGCUAGACUGCC [C18U G29A G35U]	0.05
GGCAGAGCUCAACACAGUGUGGCAAAGUGACUGUGGAUAGACUGCC [C18U G30A C37A]	0.1
GGCAGAGCUCAACACAGUGUGGCAAAGUGGCUGUGGCUAUACUGAC [C18U G40U C45A]	0.03
GGCAGAGCUCAACACAGUGUGGCAAAGUGGCUUUGCCUAGACUGCC [C18U G33U G36C]	0.02
GGCAGAGCUCAACACAGUGCGUCAAAGUGGCUGUGCCUAGACUGAC [C18U U20C G22U G36C C45A]	0.19

Variant	self-cleavage
GGCAGAGCUCAACACAGUGUGGCAAAGUGGCUGUUGCUUGACUGCC [C18U G35U A39U]	0.02
GGCAGAGCUCAACACAGUGUGGCAAAGUGUCUGUGGCUAGACGGCA [C18U G30U U43G C46A]	0.02
GGCAGAGCUCAACACAGUGUGGCAAAGUUGCUGUGGCGAAGCAGCC [C18U G29U U38G G40A A41G U43A]	0
GGCAGAGCUCAACACAGUGAGGCAAUGUGGCUGUGGCUAGACUGCC [C18U U20A A26U]	1.11
GGCAGAGCUCAACACAGUGUGGCAAAGUGGCUGUGGCUAGACCACC [C18U U43C G44A]	0.03
GGCAGAGCUCAACACAGUGUGGCAAAGUGGCAGUGACUAGCCUGAC [C18U U32A G36A A41C C45A]	0.01
GGCAGAGCUCAACACAGCAUGGCAAAGUGGCUGUGGCUCGACUGAC [G19A A39C C45A]	0.06
GGCAGAGCUCAACACAGUGUGGCAAAGUGGCUGUGGCAAGACUCCC [C18U U38A G44C]	0.08
GGCAGAGCUCAACACAGUGUGGCAAAGUGGCUCUGGCUAGACUCGC [C18U G33C G44C C45G]	0.02
GGCAGAGCUCAACACAGUGUGCCAAAGUGGCUGUUCCUAGACUGCC [C18U G22C G35U G36C]	0.04
GGCAGAGCUCAACACAGUGUGGCAAAGUGGCUGCGGCUCGACUGCC [C18U U34C A39C]	0.03
GGCAGAGCUCAACACAGCAUGGCAUCGUGGCUGUGGCUAGACUGCU [G19A A25U A26C C46U]	1.43
GGCAGAGCUCAACACAGCAUGGCUAAGUGGCUGUGGCUAGAUUGCC [G19A A24U C42U]	0.26
GGCAGAGCUCAACACAGUGUGGCAAAGUGGCUAUGGCUAAACUGCC [C18U G33A G40A]	0.01
GGCAGAGCUCAACACAGUGUUGCAAAGGGUCUGUGGCUAGACUGCA [C18U G21U U28G G30U C46A]	0.94
GGCAGAGCUCAACACAGUGUGGCAAAGUUGCUGUGGCUUGAUUGCC [C18U G29U A39U C42U]	0.63
GGCAGAGCUCAACACAGUGUGUCAAAGUGGCUGUGGCUAAACUGCC [C18U G22U G40A]	0.35
GGCAGAGCUCAACACAGUGUGGCAAAGUGCCCGUGGCUAGACUGCC [C18U G30C U32C]	0.48
